Experimental data from paper PMC12136788.
Residue numbers refer to the chain shown, from its start. The list shows a part of the results.

T1: UNK ZnF1-3 (human, UniProt Q9C0B0 31-174)
T1 sequence: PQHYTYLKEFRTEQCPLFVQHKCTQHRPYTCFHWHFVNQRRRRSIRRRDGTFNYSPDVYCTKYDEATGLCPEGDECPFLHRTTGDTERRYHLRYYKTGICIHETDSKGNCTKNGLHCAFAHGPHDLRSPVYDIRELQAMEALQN

B1: chr2:216981417:216981418:+_ENSG00000079246_ENST00000392132|hu_hu|hu_hu_hu_mus_True|58_108 (ssRNA)
RNA: GGGAGUUCUACAGUCCGACGAUCCUGAUACUGAUCCUUGCCAGCAAGGGCAUUAUCAGUGCCAUCUGUGCCAUAGAGGACUAAAGCAAUCUCAUCUUUGCUCUCCGAAAAUACCUGUCGUUGGACAAACAUAGUCAUCACUUUCAACAGAGGAUUGAGCAUCA
B2: chr3:150289932:150289933:+_ENSG00000144895_ENST00000460851|hu_hu|hu_hu_hu_mus_False|28_78 (ssRNA)
RNA: GGGAGUUCUACAGUCCGACGAUCCUUGUAGUUUUUAACAUCCCAUACUUCCAUUUGUCCCCUCAGAUUUCCAAAUCCAGCCAGCACUAAUAUAUGUCCAUGAGGGCUAUAGUAGGCUGCGUUGCGAGGACCAGUCCCAAAGUCCAACAGAGGAUUGAGCAUCA
B3: chr9:95013113:95013114:-_ENSG00000196305_ENST00000443024|hu_hu|hu_hu_hu_mus_False|78_108 (ssRNA)
RNA: GGGAGUUCUACAGUCCGACGAUCCUCAGUGAGAAAAGGCGUGUAAGGGGCCAUCAGUCUGCAAAGAGAAAGCAGGACACUGAACAGUGUCUCCAGAGCCAUGACACAGUCUUCCACCCCACUCUCACCCUUUAACCUCCUCCUCAACAGAGGAUUGAGCAUCA
B4: chr17:32491890:32491891:-_ENSMUSG00000024050_ENSMUST00000163107|mus_hu|FALSE|FALSE (ssRNA)
RNA: GGGAGUUCUACAGUCCGACGAUCGGCCCCCAAGGGGCGCCGGUUUGAGGUUUUGGCUUGCUCCUUUGGAAACGGAAAGAAAGAGGAAGAGGGACAAGGACACAGAGGAGGAAGAAGAGGAGACAGAGGUGGCACGAGAGGGGACAACAGAGGAUUGAGCAUCA
B5: chr2:29001751:29001752:+_ENSG00000213639_ENST00000296122|perfect_dup|FALSE|FALSE (ssRNA)
RNA: GGGAGUUCUACAGUCCGACGAUCAGCCAAUAGCAAACAAAUGGUUUCCAAAGACUGCUUUCCUCUGUCCACAUAAUCUCCUAAGAAAAGAUAGUUGGCUUCUGGUGGGAAACCUCCAUAUUCAAAUAAUCUCAGUAAAUCUGUCAACAGAGGAUUGAGCAUCA
B6: chr7:135834168:135834169:+_ENSMUSG00000042105_ENSMUST00000151237|mus_mus|FALSE|FALSE (ssRNA)
RNA: GGGAGUUCUACAGUCCGACGAUCUUCGUCAUCAUAAUAGGCCACAUAGUAGGCAGCGUUAGACAGCAGCAGCAGCACUUCCACAUCUCUGUGCGCAGCGUCAGUGAGGCGUGCAAGUCUGGAGAGCUUUCACACCGGCACAGUCAACAGAGGAUUGAGCAUCA
B7: 43297161_43298123_788_CDS_ENSG00000112972_ENST00000433297|human|control|control (ssRNA)
RNA: GGGAGUUCUACAGUCCGACGAUCACUGAGGUAGCACUGUAUGGAGAGUUUUCCAUCUACUAUAGGAUAUUCAGAUAGCAUAUCAGGCUUGUAAAAAUCAUAGGCAUGUUGCAUAUGUGUCCCACGAAGCCCUCGUUCAAAAAUCAACAGAGGAUUGAGCAUCA
B8: chr1:163112212:163112213:-_ENSG00000143248_ENST00000313961|hu_hu|hu_hu_hu_mus_False|28_88 (ssRNA)
RNA: GGGAGUUCUACAGUCCGACGAUCUUUUAUUAUCAGUAAGAGUGAGUCACAUAGUACGCAAAGUAUUGGAUACAAUAAUCAGGAAACAAACACUAUUGGUCCAGAAUUUAAAAUAUAAUGAGCGAAGUGCUGGCACAGGACUUACAACAGAGGAUUGAGCAUCA
B9: chr3:119450855:119450856:-_ENSMUSG00000028134_ENSMUST00000029780|mus_hu|mus_mus_mus_hu_False|48_48 (ssRNA)
RNA: GGGAGUUCUACAGUCCGACGAUCUGUGGUGCCACUAAGAGGAGUAUUUGCUGUCUGGACAGCUGUCACAGCUUGAAGAACUGCCUGCGCACGUUGGUUUAAUGUAUUAUCUGUCUUUAGUUCUUUGUGAUUCGAGUACUGGAUCAACAGAGGAUUGAGCAUCA
B10: chr17:57814845:57814846:+_ENSG00000062716_ENST00000262291|hu_hu|FALSE|FALSE (ssRNA)
RNA: GGGAGUUCUACAGUCCGACGAUCCUGUUUCUCUAUACGUUGCACAUACUGUUGAUGCACUCCUUCAACAUAAUACGUAGCUAUAAGCACAGCAAGCAGCAGUAAAAAAGACACCACAAUGCUUUGACGAUGCCAUAAUUUUGACAACAGAGGAUUGAGCAUCA
B11: chr17:36096658:36096659:-_ENSMUSG00000038762_ENSMUST00000043757|mus_hu|FALSE|FALSE (ssRNA)
RNA: GGGAGUUCUACAGUCCGACGAUCUUGCUUCUCAUACUGUUUCAGCAGUUCUUUCUGCUUCUGCUGGUACAUCUUUUUGAAGGUCAUGUAAUUGCCCCUAUAGUAGUGGAGCCGCUGGGCAUCGAGGUGGAUGAUAUCAGUGCACAACAGAGGAUUGAGCAUCA
B12: chr5:128440902:128440903:+_ENSG00000066583_ENST00000173527|hu_mus|hu_hu_hu_mus_True|38_88 (ssRNA)
RNA: GGGAGUUCUACAGUCCGACGAUCUUGAACGGUGCUGCCAAGUCCUUUAGGGUAUUGUUCCGUUAUGAUAACUGGAAUCCCUAAGAUCCGAGCUCCUUGCAACAAUCUCUGUCCCACACUAAUGAUGUCCCCAAAGUAUUUGAUCAACAGAGGAUUGAGCAUCA
B13: chr5:128440902:128440903:+_ENSG00000066583_ENST00000173527|hu_mus|hu_hu_hu_mus_True|68_68 (ssRNA)
RNA: B12 RNA with A48G, U72A, A104G
B14: chr8:11702082:11702083:-_ENSG00000164733_ENST00000533455|hu_hu|motif|central (ssRNA)
RNA: GGGAGUUCUACAGUCCGACGAUCCGCUGUUCCACUGGCUCACCCACAUGAUUAGCAGAGUGCACGAAAAAAUAAAACUUCGGUUAAAGAAUCAUGCUGAGCACAAGAUCAGAGAGGUUGUGACAUUGCAAACUCGAUAGAUGCCAACAGAGGAUUGAGCAUCA

What follows are binders tested against T1, UNK ZnF1-3 (assay: nsRBNS (natural sequence RNA bind-n-seq); RBNS binding buffer (assumed for nsRBNS): 25 mM Tris pH 7.5, 150 mM KCl, 3 mM MgCl2, 0.01% Triton X-100, 500 ug/ml BSA, 20 U/ml SUPERase-In, 4 C; UNK is unkempt and MSI1 is Musashi-1; names of the RNAs are library labels; protein concentration not given here; high values mean tight binding).
B1 showed a binding signal of 0.717 enrichment R.
Binder B2 has a binding signal of 1.02 enrichment R.
B3 was tested, and the binding signal was 1.41 enrichment R.
In the case of B4, the binding signal is reported as 2.87 enrichment R.
In the case of B5, the binding signal is reported as 1.88 enrichment R.
In the case of B6, the binding signal is reported as 0.98 enrichment R.
In the case of B7, the binding signal is reported as 1 enrichment R.
With B8 the binding signal was 2.29 enrichment R.
B9 gave a binding signal of 0.746 enrichment R.
B10 gave a binding signal of 1.01 enrichment R.
With B11 the binding signal was 0.56 enrichment R.
For B12, the binding signal was 0.769 enrichment R.
Work on B13 yielded a binding signal of 0.828 enrichment R.
Work on B14 yielded a binding signal of 1.87 enrichment R.
